The other results are listed elsewhere or left out. Values come from read counts of a selection and are noisy. Each score is taken over the longer molecules that contain the sequence shown.
Tests used:
Assay in all cases: 6-mer SELEX enrichment z-score vs GST control; IMP3 is the RNA-binding protein IGF2BP3; higher = more enriched by binding
[1] = system: IMP3 KH1-4; settings: construct: KH1-4 (164-579); SELEX round: R4
Experimental: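 SELEX-seq with GST-tagged IMP3 KH1-4 (Pro164-Lys579) and an N40 RNA pool, round 4. 6-mer z-score of sequence-tag enrichment normalised to the corresponding GST SELEX round; RNA k-mers written as DNA (T for U).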

[2] = system: IMP3 RRM1-2; settings: construct: RRM1-2 (1-163); SELEX round: R2
Experimental: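 SELEX-seq with GST-tagged IMP3 RRM1-2 (Met1-Asn163) and an N40 RNA pool, round 2. 6-mer enrichment z-score normalised to GST SELEX. RNA written as DNA (T = U).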

[3] = target: IMP3 full-length (UniProt O00425); settings: construct: FL IMP3 (1-579); SELEX round: R4
Experimental: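 SELEX-seq with GST-tagged full-length IMP3 and an N40 RNA pool, round 4. Each 6-mer is scored as an enrichment z-score of sequence tags containing it, normalised to the matching GST SELEX round. RNA written as DNA (T = U).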

[4] = system: IMP3 KH1-2; settings: construct: KH1-2 (164-376); SELEX round: R4
Experimental: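 SELEX-seq with GST-tagged IMP3 KH1-2 (Pro164-Phe376) and an N40 RNA pool, round 4 (stringent 300/600 mM KCl washes). 6-mer z-score of sequence-tag enrichment normalised to the corresponding GST SELEX round; RNA k-mers written as DNA (T for U).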

[5] = system: IMP3 KH3-4; settings: construct: KH3-4 (377-579); SELEX round: R4
Experimental: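 SELEX-seq with GST-tagged IMP3 KH3-4 (Pro377-Lys579) and an N40 RNA pool, round 4. 6-mer z-score of sequence-tag enrichment normalised to the corresponding GST SELEX round; RNA k-mers written as DNA (T for U).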

Chain of IMP3 KH3-4 (chain, as listed by the source): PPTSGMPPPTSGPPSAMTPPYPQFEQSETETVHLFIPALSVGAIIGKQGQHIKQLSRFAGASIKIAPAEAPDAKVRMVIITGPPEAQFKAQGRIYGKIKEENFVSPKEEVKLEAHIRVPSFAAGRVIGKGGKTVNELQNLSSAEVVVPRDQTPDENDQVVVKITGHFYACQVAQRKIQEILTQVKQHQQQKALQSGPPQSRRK
Chain of IMP3 RRM1-2 (chain, as listed by the source): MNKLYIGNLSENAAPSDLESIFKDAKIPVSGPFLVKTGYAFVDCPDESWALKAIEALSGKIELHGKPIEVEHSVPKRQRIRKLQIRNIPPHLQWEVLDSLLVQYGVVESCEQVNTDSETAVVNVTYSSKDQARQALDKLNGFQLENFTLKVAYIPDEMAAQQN
Chain of IMP3 KH1-4 (chain, as listed by the source): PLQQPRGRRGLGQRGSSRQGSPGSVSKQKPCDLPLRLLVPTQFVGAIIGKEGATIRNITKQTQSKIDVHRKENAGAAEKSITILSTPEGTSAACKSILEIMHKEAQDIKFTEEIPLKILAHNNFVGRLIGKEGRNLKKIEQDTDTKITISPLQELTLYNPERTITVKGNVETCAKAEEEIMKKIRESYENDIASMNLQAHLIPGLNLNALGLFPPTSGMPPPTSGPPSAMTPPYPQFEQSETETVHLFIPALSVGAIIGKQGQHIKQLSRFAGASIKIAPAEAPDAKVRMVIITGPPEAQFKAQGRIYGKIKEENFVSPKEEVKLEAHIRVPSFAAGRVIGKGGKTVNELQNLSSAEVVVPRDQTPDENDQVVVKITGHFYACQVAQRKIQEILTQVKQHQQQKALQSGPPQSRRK
Chain of IMP3 KH1-2 (chain, as listed by the source): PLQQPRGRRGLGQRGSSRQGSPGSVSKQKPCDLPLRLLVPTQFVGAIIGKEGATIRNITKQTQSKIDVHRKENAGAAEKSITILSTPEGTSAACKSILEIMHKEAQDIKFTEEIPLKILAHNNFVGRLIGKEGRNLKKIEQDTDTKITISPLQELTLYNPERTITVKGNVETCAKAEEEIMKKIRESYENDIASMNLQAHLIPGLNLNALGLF
Chain of UniProt O00425 (O00425 whole entry): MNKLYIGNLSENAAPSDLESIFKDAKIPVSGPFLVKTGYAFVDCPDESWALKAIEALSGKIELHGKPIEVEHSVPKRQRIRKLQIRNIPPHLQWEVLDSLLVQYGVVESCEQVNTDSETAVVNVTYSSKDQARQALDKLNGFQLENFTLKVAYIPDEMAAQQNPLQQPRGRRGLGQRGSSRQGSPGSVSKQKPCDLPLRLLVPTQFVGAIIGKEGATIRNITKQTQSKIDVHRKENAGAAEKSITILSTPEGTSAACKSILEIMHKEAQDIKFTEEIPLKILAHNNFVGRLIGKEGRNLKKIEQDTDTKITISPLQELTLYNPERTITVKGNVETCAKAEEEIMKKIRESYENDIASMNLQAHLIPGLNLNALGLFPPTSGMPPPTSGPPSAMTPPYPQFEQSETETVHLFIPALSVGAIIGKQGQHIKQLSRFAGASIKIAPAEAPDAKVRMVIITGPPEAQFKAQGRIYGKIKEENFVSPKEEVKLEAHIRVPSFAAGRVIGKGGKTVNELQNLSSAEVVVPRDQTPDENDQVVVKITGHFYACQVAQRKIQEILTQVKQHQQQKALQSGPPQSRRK

Row | Sequence | 6-mer SELEX enrichment z-score [1] | 6-mer SELEX enrichment z-score [2] | 6-mer SELEX enrichment z-score [3] | 6-mer SELEX enrichment z-score [4] | 6-mer SELEX enrichment z-score [5]
1 | AAACCT | -1.88 | -1.63 | -2.56 | -1.81 | -2.1
2 | TGGCTA | 0.002 | 0.257 | 0.021 | 0.075 | 0.31
3 | AGTACC | -1.24 | -0.156 | -0.411 | -1.19 | -1.36
4 | AGTCGG | 1.73 | 0.433 | 2.1 | 1.49 | 1.35
5 | CATCGT | 0.154 | 0.523 | 0.728 | -0.149 | -0.145
6 | ACCCTG | -1.52 | -0.874 | -1.37 | -1.57 | -1.88
7 | CTAACA | 0.605 | 0.729 | 0.146 | 0.831 | 0.473
8 | GATCCG | -0.588 | -0.467 | -0.343 | -0.476 | -0.738
9 | ATTTAG | 0.734 | 0.176 | 0.198 | 0.579 | 1.17
10 | AGGATA | 0.986 | -0.322 | 0.059 | 0.744 | 1.29
11 | TCAAAT | 0.31 | 0.412 | 0.334 | 0.418 | 0.465
12 | AGTTCG | -0.001 | 0.309 | 0.111 | -0.09 | 0.089
13 | AACGTC | -1.4 | -0.292 | -0.363 | -1.4 | -1.39
14 | CTACAA | 0.347 | 0.404 | -0.006 | 0.541 | 0.149
15 | ATCCAT | 0.481 | 0.646 | 0.433 | 0.49 | 0.052
16 | CGGAGG | 0.322 | -0.334 | 0.42 | 0.435 | 0.25
17 | CTGCCA | 0.297 | -0.153 | 0.005 | 0.369 | -0.273
18 | CAGGAC | 0.614 | 0.296 | 0.631 | 0.446 | 0.05
19 | TACAGA | 0.867 | 0.227 | 0.692 | 1.22 | 1.04
20 | ACTTTA | 1.01 | -0.091 | -0.117 | 1.01 | 1.3
21 | ACGATA | 0.865 | -1.06 | -0.196 | 0.792 | 1.25
22 | CAGAAG | -0.082 | -0.237 | 0.142 | -0.021 | 0.013
23 | TTGGGG | 0.357 | 0.423 | 0.307 | 0.489 | 0.631
24 | CTGCGG | -0.163 | 0.07 | 0.242 | -0.076 | -0.12
25 | CGCGGC | 0.76 | 0.198 | 1.6 | 0.589 | 0.573
26 | GGATCA | 0.486 | 1.3 | 0.723 | 0.225 | 0.445
27 | GATTCT | 0.34 | 0.093 | -0.015 | 0.306 | 0.377
28 | GGATCT | -0.084 | 0.309 | 0.054 | -0.077 | 0.043

Row | Sequence | 6-mer SELEX enrichment z-score [1] | 6-mer SELEX enrichment z-score [2] | 6-mer SELEX enrichment z-score [3] | 6-mer SELEX enrichment z-score [4] | 6-mer SELEX enrichment z-score [5]
29 | ACGACC | -1.3 | -1.19 | -1.43 | -1.14 | -1.89
30 | ACTCGG | -0.833 | 0.056 | 0.076 | -0.778 | -0.758
31 | TACAGT | 0.889 | 0.427 | 0.72 | 0.851 | 0.726
32 | CACCCG | -1.23 | -0.702 | -0.816 | -1.24 | -1.86
33 | CTAAGG | -0.12 | 0.192 | -0.195 | -0.223 | -0.019
34 | AGAGAT | 0.705 | -0.718 | -0.094 | 0.516 | 1.12
35 | GTCCTA | -0.054 | -0.116 | -0.318 | -0.183 | -0.157
36 | GGTCTG | 0.071 | 0.321 | 0.246 | 0.103 | 0.118
37 | ACGTCG | -0.29 | 0.176 | 0.632 | -0.418 | -0.346
38 | CGCCAA | -0.739 | -0.49 | -0.284 | -0.544 | -1.05
39 | CGAGGT | -0.659 | -0.117 | -0.03 | -0.488 | -0.375
40 | CGATCC | -1.01 | -0.602 | -0.653 | -0.939 | -1.29
41 | AACATT | 1.83 | 1.79 | 1.82 | 1.83 | 2.11
42 | CTACTG | 0.187 | -0.094 | -0.229 | 0.269 | -0.004
43 | CGCGTC | -0.695 | 0.406 | 0.538 | -0.538 | -0.552
44 | GTAACC | -1.3 | -0.651 | -1.09 | -1.26 | -1.46
45 | CGCAAG | -0.51 | -0.088 | 0.008 | -0.403 | -0.483
46 | TGAAAT | 0.859 | -0.958 | -0.642 | 0.465 | 1.48
47 | ACCTAG | -1.16 | -0.563 | -1.09 | -1.15 | -1.18
48 | CTTGTT | -0.061 | 0.344 | -0.09 | -0.034 | 0.047
49 | ACTAAT | 1.35 | -0.016 | -0.09 | 1.27 | 1.78
50 | GCGGGT | -0.31 | 0.17 | 0.328 | -0.075 | 0.004
51 | ACCATC | 0.394 | 1.33 | 0.905 | 0.318 | -0.529
52 | CGCATC | 0.765 | 0.358 | 1.53 | 0.482 | -0.152
53 | TGCCGG | -0.198 | -0.166 | 0.228 | -0.164 | -0.242
54 | ACTCAA | -1.37 | 0.481 | -0.769 | -1.19 | -1.47
55 | CGGACC | -0.851 | -0.801 | -0.386 | -0.887 | -1.26

— the supplement of paper PMC6531468
